From publication PMC2745333 (Molecular Microbiology, 2009)

B1: PspF_(1−275)G133A (domain or fragment)
chain: not shown
B2: PspF_(1−275)P137A (domain or fragment)
chain: not shown
B3: PspF_(1−275)L138A (domain or fragment)
chain: not shown
B4: PspF_(1−275)Q139A (domain or fragment)
chain: not shown
B5: PspF_(1−275)Q136A (domain or fragment)
chain: not shown
B6: PspF_(1−275)V132A (domain or fragment)
chain: not shown
B7: PspF_(1−275)P137T (domain or fragment)
chain: not shown
B8: PspF_(1−275)S135A (domain or fragment)
chain: not shown

Target: the molecule itself
Assay: SEC

| Protein | stoichiometry N |
| --- | --- |
| B1 | 2 |
| B2 | 2 |
| B3 | 2 |
| B4 | 2 |
| B5 | 2 |
| B6 | 2 |
| B7 | 2 |
| B8 | 2 |

Target: the molecule itself
Assay: SEC
Remark: another data set of the same source

| Protein | stoichiometry N |
| --- | --- |
| B1 | 6 |
| B2 | 6 |
| B3 | 6 |
| B4 | 6 |
| B5 | 6 |
| B6 | 6 |
| B7 | 6 |
| B8 | 6 |
